This is an account of results in patent US20250136594A1 (Tango Therapeutics, Inc., priority 2022, published 2025).

In assay [1] the test system is SDMA in HAP1 MTAP-intact cell line (PRMT5 inhibition). As to the kind of experiment: SDMA in-cell western assay, HAP1 MTAP-intact cell line. The conditions noted are these: Homo sapiens, HAP1, read-out: Hap1 MTAP intact IC50.
Assay [2] relates to SDMA in HAP1 MTAP-deleted (MTAP-null) cell line (PRMT5 inhibition). As to the kind of experiment: SDMA in-cell western assay, HAP1 MTAP-deleted cell line. To be noted: for IC50 / IC90: Homo sapiens; for IC50: HAP1, read-out: Hap1 MTAP deleted IC50; for IC90: HAP1, read-out: Hap1 MTAP deleted IC90; for Hap1 MTAP intact/deleted ratio: ratio of SDMA IC50 in HAP1 MTAP-intact to HAP1 MTAP-deleted cell line.

The test system of assay [3] is HAP1 MTAP-deleted cell line. In words: Viability assay, HAP1 MTAP-deleted cell line. The format is cell-based. The conditions noted are these: Homo sapiens; viability assay, HAP1 MTAP-deleted cell line; read-out: Hap1 MTAP deleted viability IC50.

With `Cc1cccnc1CN(Cc1ccc(F)cc1)C(=O)C(=O)Nc1cnc(N)c2cn[nH]c12` [Compound 119, N-(4-amino-1H-pyrazolo[4,3-c]pyridin-7-yl)-N′-[(4-fluorophenyl)methyl]-N′-[(3-methyl-2-pyridyl)methyl]oxamide], the IC50 (in general, the concentration that gives 50% inhibition) is 5 to 50 nM in assay [1], < 5 nM in assay [2] and < 100 nM in assay [3]. Besides, the IC90 (in general, the concentration at which the effect reaches the 90% level) in assay [2] is < 75 nM. In addition, the “Hap1 MTAP intact/deleted ratio” value in assay [2] is recorded as “A (IC50 ratio greater than or equal to 30 fold)”.

Consider `CCN(C(=O)C(=O)Nc1cnc(N)c2cn[nH]c12)[C@H](C)c1ccc(C(F)(F)C(F)(F)F)cc1F` [Compound 103, N-(4-Amino-1H-pyrazolo[4,3-c]pyridin-7-yl)-N′-ethyl-N′—[(1R)-1-[2-fluoro-4-(1,1,2,2,2-pentafluoroethyl)phenyl]ethyl]oxamide], for which the IC50 in assay [1] lay within 5 to 50 nM. Besides, in assay [2], the IC50 is < 5 nM, the IC90 is < 75 nM and the “Hap1 MTAP intact/deleted ratio” value is recorded as “C (IC50 ratio of less than 15 fold)”. The 50% inhibitory concentration (IC50) in assay [3] was < 100 nM.

Take `Cc1cc(C(F)(F)C(F)(F)F)ccc1CN(C)C(=O)C(=O)Nc1cnc(N)c2cn[nH]c12` [Compound 184, N-(4-Amino-1H-pyrazolo[4,3-c]pyridin-7-yl)-N′-methyl-N′-[[2-methyl-4-(1,1,2,2,2-pentafluoroethyl)phenyl]methyl]oxamide]: the IC50 in assay [1] was > 50 nM. In assay [2], the IC50 is < 5 nM, the IC90 was < 75 nM and the “Hap1 MTAP intact/deleted ratio” value is given as “A (IC50 ratio greater than or equal to 30 fold)”. For the same molecule, in assay [3], the IC50 was < 100 nM.

On to `Nc1ncc(NC(=O)C(=O)N(Cc2ccccc2)Cc2cccc(C(F)(F)F)n2)c2[nH]ncc12` [Compound 55, N-(4-amino-1H-pyrazolo[4,3-c]pyridin-7-yl)-N′-benzyl-N′-[[6-(trifluoromethyl)-2-pyridyl]methyl]oxamide], for which, in assay [1], the IC50 lay in the range of 5 to 50 nM. Besides, in assay [2], the IC50 is < 5 nM, the IC90 is < 75 nM and the “Hap1 MTAP intact/deleted ratio” value is “B (IC50 ratio greater than or equal to 15 fold but lower than 30 fold)”. The IC50 in assay [3] is < 100 nM.

As for `CC(c1ccc(F)cc1)N(C(=O)C(=O)Nc1cnc(N)c2cn[nH]c12)C(C)c1ccc(F)cc1` (stereo not shown) [Compound 112, N-(4-amino-1H-pyrazolo[4,3-c]pyridin-7-yl)-N′,N′-bis [1-(4-fluorophenyl)ethyl]oxamide], the results for the IC50 in assay [1], in assay [2] and in assay [3] were > 50 nM, < 5 nM and < 100 nM, respectively. In assay [2], the IC90 is < 75 nM. For the same molecule, in assay [2], the “Hap1 MTAP intact/deleted ratio” value is reported as “B (IC50 ratio greater than or equal to 15 fold but lower than 30 fold)”.

Consider `CN(Cc1ccccc1-c1ccccc1)C(=O)C(=O)Nc1cnc(N)c2cn[nH]c12` [Compound 164, N-(4-amino-2H-pyrazolo[4,3-c]pyridin-7-yl)-N′-methyl-N′-[(2-phenylphenyl)methyl]oxamide], for which the IC50 in assay [1] was > 50 nM; in assay [2], < 5 nM; in assay [3], 100 to 1000 nM. In addition, in assay [2], the IC90 was > 125 nM. In assay [2], the “Hap1 MTAP intact/deleted ratio” value was “A (IC50 ratio greater than or equal to 30 fold)”.

With `Nc1ncc(NC(=O)C(=O)N(Cc2ccccc2)Cc2cccc3ccccc23)c2[nH]ncc12` [Compound 122, N-(4-amino-1H-pyrazolo[4,3-c]pyridin-7-yl)-N′-benzyl-N′-(1-naphthylmethyl)oxamide], the IC50 in assay [1] is 5 to 50 nM. Besides, in assay [2], the IC50 was < 5 nM, the IC90 was < 75 nM and the “Hap1 MTAP intact/deleted ratio” value is given as “B (IC50 ratio greater than or equal to 15 fold but lower than 30 fold)”. The IC50 in assay [3] is < 100 nM.

In the case of `C[C@H](c1ccc(C(F)(F)F)cn1)N(C)C(=O)C(=O)Nc1cnc(N)c2cn[nH]c12` [Compound 147, N-(4-amino-1H-pyrazolo[4,3-c]pyridin-7-yl)-N′-methyl-N′—[(1R)-1-[5-(trifluoromethyl)-2-pyridyl]ethyl]oxamide], the IC50 is > 50 nM in assay [1], < 5 nM in assay [2] and < 100 nM in assay [3]. Further, the IC90 in assay [2] was < 75 nM. For the same molecule, in assay [2], the “Hap1 MTAP intact/deleted ratio” value was “A (IC50 ratio greater than or equal to 30 fold)”.

As for `Nc1ncc(NC(=O)C(=O)N(Cc2ccccc2)Cc2ccc(F)cc2)c2[nH]ncc12` [Compound 38, N-(4-amino-1H-pyrazolo[4,3-c]pyridin-7-yl)-N′-benzyl-N′-[(4-fluorophenyl)methyl]oxamide], in assay [1], the IC50 was > 50 nM. For the same molecule, in assay [2], the half-inhibitory concentration (IC50) was < 5 nM, the IC90 is < 75 nM and the “Hap1 MTAP intact/deleted ratio” value is “A (IC50 ratio greater than or equal to 30 fold)”. Also, in assay [3], the IC50 is < 100 nM.

For the molecule `CC[C@@H](C)CN(Cc1ccccn1)C(=O)C(=O)Nc1cnc(N)c2cn[nH]c12` [Compound 115, (R)—N^1-(4-amino-1H-pyrazolo[4,3-c]pyridin-7-yl)-N^2-(2-methylbutyl)-N^2-(pyridin-2-ylmethyl)oxalamide], the IC50 is > 50 nM in assay [1], < 5 nM in assay [2] and < 100 nM in assay [3]. In addition, the IC90 in assay [2] was < 75 nM. Besides, in assay [2], the “Hap1 MTAP intact/deleted ratio” value is recorded as “A (IC50 ratio greater than or equal to 30 fold)”.

In the case of `Nc1cccc(CN(Cc2ccccc2)C(=O)C(=O)Nc2cnc(N)c3cn[nH]c23)c1` [Compound 145, N′-[(3-aminophenyl)methyl]-N-(4-amino-1H-pyrazolo[4,3-c]pyridin-7-yl)-N′-benzyl-oxamide], in assay [1], the IC50 is > 50 nM. In addition, in assay [2], the IC50 is < 5 nM, the IC90 is < 75 nM and the “Hap1 MTAP intact/deleted ratio” value is “B (IC50 ratio greater than or equal to 15 fold but lower than 30 fold)”. In assay [3], the IC50 was < 100 nM.

As for `CC(C)C(C)N(Cc1ccc(C(F)(F)F)cn1)C(=O)C(=O)Nc1cnc(N)c2cn[nH]c12` (stereo not shown) [Compound 18, N-(4-amino-1H-pyrazolo[4,3-c]pyridin-7-yl)-N′-(1,2-dimethylpropyl)-N′-[[5-(trifluoromethyl)-2-pyridyl]methyl]oxamide], the 50% inhibitory concentration (IC50) in assay [1] was 5 to 50 nM. For the same molecule, in assay [2], the IC50 was < 5 nM, the IC90 is < 75 nM and the “Hap1 MTAP intact/deleted ratio” value is reported as “C (IC50 ratio of less than 15 fold)”. For the same molecule, the IC50 in assay [3] is < 100 nM.

Consider `N#Cc1ccc(CN(Cc2ncccn2)C(=O)C(=O)Nc2cnc(N)c3cn[nH]c23)nc1` [Compound 113, N-(4-amino-1H-pyrazolo[4.3-c]pyridin-7-yl)-N′-[(5-cyano-2-pyridyl)methyl]-N′-(pyrimidin-2-ylmethyl)oxamide], for which the IC50 in assay [1] was > 50 nM. Further, in assay [2], the IC50 lay within 5 to 50 nM, the IC90 is > 125 nM and the “Hap1 MTAP intact/deleted ratio” value is “B (IC50 ratio greater than or equal to 15 fold but lower than 30 fold)”. For the same molecule, the IC50 in assay [3] was 100 to 1000 nM.

For the molecule `CCN(C(=O)C(=O)Nc1cnc(N)c2cn[nH]c12)[C@H](C)c1ccc(C(F)(F)F)cc1F` [Compound 126, N-(4-Amino-1H-pyrazolo[4,3-c]pyridin-7-yl)-N′-ethyl-N′—[(1R)-1-[2-fluoro-4-(trifluoromethyl)phenyl]ethyl]oxamide], the IC50 in assay [1] lay in the range of 5 to 50 nM. Besides, in assay [2], the IC50 is < 5 nM, the IC90 is < 75 nM and the “Hap1 MTAP intact/deleted ratio” value is “B (IC50 ratio greater than or equal to 15 fold but lower than 30 fold)”. The IC50 in assay [3] was < 100 nM.
